Experimental data reported in PubChem BioAssay AID1508649 (National Center for Advancing Translational Sciences (NCATS), 2021).
Out of some 43,000 compounds screened, about 830 (1.9%) were called active. The inconclusive results got no clear call from the source; some entries with a clear call stand among them for comparison. Rule for the calls: active = clear falling dose curves in both reporters; inconclusive = both reporters move, but less clearly or upward; inactive = either reporter flat; the % is the NLuc reporter signal. Potencies of inconclusive entries are left out as doubtful fits.
Potency is the fitted concentration of half-maximal effect; tags give direction and shape of the fitted curve.

Test: Cell-based coincidence reporter assay to measure PMP22 gene transcription in S16 Pmp22-F2sN cells - Primary screen
Conditions: S16 Pmp22-F2sN Schwann cells (luciferase reporters placed in the Pmp22 gene), FLuc/NLuc coincidence luminescence, 24 h; measured here: NLuc reporter readout, at 57.5 µM (top of the series)
From the text: Assay Provider: Jim Inglese Ph.D. National Center for Advancing Translational Science, National Institutes of Health, Rockville, MD CMT is a heterogeneous group of neurological disorders that affect approximately 1 in 2,500 people. In particular, the most common form of CMT, CMT1A is genetically linked to the duplication of the PMP22 gene which leads to Schwann cell overexpression, thus manifesting itself as a typical case of dose-sensitive diseases. To identify small molecule compounds that can mediate the expression of PMP22 we developed a phenotypic assay screening strategy by utilizing genome editing techniques to construct Schwann cell lines containing novel reporter technology to monitor the transcriptional or translational regulation of PMP22. For high sensitivity we use a bioluminescent reporter system embedded in the 3' UTR of the PMP22 gene (S16(c9) Pmp22-F2sN) to identify compounds that inhibit gene expression. […] We can further discriminate the effect of all transcriptionally active molecules on PMP22 translation or stability with an assay that incorporates a short NLuc peptide (HiBiT) at the C-terminus of expressed PMP22 (S16(f8) PMP22-HiBiT) allowing alpha complementation and luminescence detection of membrane-associated PMP22 protein. These assays were screened against the NCATS Sytravon Library Collection. Miniaturization of these assays to 1536-well plate format for quantitative high throughput screening (qHTS) yielded rich data sets immediately from the qHTS assay (S16(c9) Pmp22-F2sN), when compared with data from a cell viability assay (Cell TiterGlo) to identify compounds that decreased the output signals through cellular toxicity to streamline the selection process of actives for subsequent characterization using the HiBiT assay (S16(f8) PMP22-HiBiT).
Cell-based coincidence reporter assay to measure PMP22 gene transcription in S16 Pmp22-F2sN cells PROTOCOL TABLE (format as described by Inglese J, Shamu CE and Guy RK. 2007) SEQUENCE No. (e.g., 1, 2, 3, etc.); […] (e.g., Cells, Incubation, Reagent, etc.); VALUE and DESCRIPTION. 1. Cells. Add 500-1,000 cells in 4 uL in growth media (DMEM High Glucose, No Phenol Red media + 10% heat-inactivated FBS + 1% Pen/Strep supplemented media) per well into Greiner 1536-well white/solid bottom high base, TC-treated plates. 2. Compounds. Library compounds and controls added at 23nL per well, transferred by Pin Tool. 3. Incubation. Incubate plates at 37C, 5% CO2, 95% RH for 24 h. 4. Reagent. Add 3.5uL Nano-Glo Dual-Luciferase Reporter Assay System reagent 1: Lysis and FLuc reagent per well of Greiner 1536-well plates. 5. Incubation. Incubate plates at room temperature for 10 min., protect from light. 6. Detector. FLuc luminescence measured using CCD-based camera (Viewlux). 7. Reagent. Add 3.5uL Nano-Glo Dual-Luciferase Reporter Assay System reagent 2: Stop&Glo reagent per well of Greiner 1536-well plates. 8. Incubation. Incubate plates at room temperature for 10 min., protect from light. 9. Detector. NLuc luminescence measured using CCD-based camera (Viewlux). NOTES (numbers refer to Sequence numbers above; values are from representative experiments) 6. Luminescence Read #1 (FLuc): Clear filter; Exposure = 10 sec, Gain = High, Speed = Slow, Binning = 2X 9. Luminescence Read #2 (NLuc): Clear filter; Exposure = 1 sec, Gain = High, Speed = Slow, Binning = 2X REFERENCES: 1. Inglese J, Shamu CE and Guy RK, Reporting data from high throughput screening of small molecule libraries, Nature Chemical Biology, 2007, 3(8): 438-441. doi.org/10.1038/nchembio0807-438 2. Yasgar A, Shinn P, Jadhav A, Auld DS, Michael S, Zheng W, Austin CP, Inglese J and Simeonov A, Compound Management for Quantitative High-Throughput Screening. J. Assoc. Lab. Auto., 2008, 13: 79-89. doi: 10.1016/j.jala.2007.12.004
For COc1ccc(-c2nc(S(=O)(=O)c3ccc(Cl)cc3)c(NCc3ccccc3)o2)cc1, the Potency was inconclusive [phenotype inactive, single point].
With COc1ccc(C2N=C(N)Nc3nc4ccccc4n32)cc1 (stereo not drawn) the Potency was “inactive”.
With COc1ccc(Cn2c(SCC(=O)N(C)Cc3ccccc3)nc3ccccc32)cc1 the Potency was active: 20 µM.
In the case of CCOc1ccc(NS(=O)(=O)c2ccc3c(c2)CCCN3C(=O)C2CCC2)cc1, the Potency is reported as inconclusive [phenotype inactive, single point].
With CCOc1ccc(NC(=O)c2c(NC(=O)Cc3ccccc3)sc3c2CCCCC3)cc1 the Potency was inconclusive [phenotype inactive, partial curve].
With Cc1cc(C)cc(NC(=O)Cn2cc(C(=O)C3CCCCC3)c3ccccc32)c1 the Potency was inconclusive [phenotype inactive, single point].
In the case of COc1ccc(OCC(O)Cn2c(NCCO)nc3c2c(=O)n(C)c(=O)n3C)cc1 (stereo not drawn), the Potency is reported as inconclusive [phenotype inactive, partial curve].
With CCCCCn1c(=O)[nH]c2cc(C(=O)N3CCN(c4cccc(C(F)(F)F)c4)CC3)ccc2c1=O the Potency was “inactive”.
For Cc1ccc(C(=O)c2cn(Cc3ccc(Cl)cc3)c3nc(C)ccc3c2=O)cc1, the Potency was inconclusive [phenotype inactive, single point].
In the case of Cc1sc2ncn(CC(=O)Nc3ccc(C(C)C)cc3)c(=O)c2c1S(=O)(=O)N1CCN(c2ncccn2)CC1, the Potency is reported as inconclusive [phenotype inactive, single point].
For O=C(CCC1N=C2c3ccccc3N=C(SCc3ccc(F)cc3)N2C1=O)NCCc1ccccc1 (stereo not drawn), the Potency was inconclusive [phenotype inactive, single point].
In the case of Cc1ccc(NC(=O)C2CCCN(C(=O)c3cnn(-c4ccc(F)cc4)c3-n3cccc3)C2)c(Cl)c1 (stereo not drawn), the Potency is reported as inconclusive [phenotype inactive, partial curve].
With CCOc1ccccc1CNC(=O)c1ccc2c(c1)N(Cc1ccc(C)cc1)CCS2 the Potency was inconclusive [phenotype inactive, partial curve, poor fit].
In the case of COc1ccc(-c2cc(C(F)(F)F)n3nc(-c4ccccc4)cc3n2)cc1OC, the Potency is reported as inconclusive [phenotype inactive, single point].
With Cc1ccc2oc(-c3ccc(C)c(NC(=O)C(C)(C)Oc4ccc(Cl)cc4)c3)nc2c1 the Potency was “inactive”.
With CCc1ccc(N(CC)C(=O)Cn2nc(Cc3cccnc3)c3ccccc3c2=O)cc1 the Potency was inconclusive [phenotype inactive, partial curve].
For COc1cccc(NC(=O)CSc2nc3c([nH]c4ccccc43)c(=O)n2-c2cc(C)cc(C)c2)c1, the Potency was “inactive”.
With CC1CCc2c(cc(-c3ccccc3)n2-c2ccc(C(=O)NC(C)C)cc2)C1 (stereo not drawn) the Potency was active: 13.4 µM.
For Cc1ccc(CNC(=O)c2nn(-c3ccc(Cl)cc3)nc2CO)cc1, the Potency was inconclusive [phenotype inactive, single point].
In the case of Cc1cc(C)c(NC(=O)c2nc3ccccc3nc2N2CCCCC2)c(C)c1, the Potency is reported as inconclusive [phenotype inactive, single point].
In the case of O=C(CCS(=O)(=O)c1cc(Br)cc2c1N(C(=O)C1CC1)CC2)N1CCN(c2cccc(Cl)c2)CC1, the Potency is reported as inconclusive [phenotype inactive, single point].
For Cc1cc(NC(=O)CCn2c(=O)c3cccn3c3cccnc32)ccc1Br, the Potency was inconclusive [phenotype inactive, single point].
With CSc1ncc(C(=O)Nc2ccccc2C(F)(F)F)c(-c2ccccc2)n1 the Potency was “inactive”.
In the case of CCc1cccc(NC(=O)CN(c2ccc(C)c(C)c2)S(=O)(=O)c2ccsc2C(=O)OC)c1, the Potency is reported as inconclusive [phenotype inactive, single point].
In the case of CC(C)OCCCNc1ncnc2sc3c(c12)CCCC3, the Potency is reported as active: 14.1 µM.
With Cc1ccc(C)c(Cn2c(=O)n(CCCCC(=O)NCc3ccc4c(c3)OCO4)c(=O)c3ccccc32)c1 the Potency was inconclusive [phenotype inactive, single point].
With CCCN(CCC)CCCNC(=O)C1CCCN(Cc2nc(-c3ccc(Cl)cc3)oc2C)C1 (stereo not drawn) the Potency was inconclusive [phenotype inactive, partial curve].
In the case of O=C(CC1N=C2c3ccccc3N=C(SCc3ccccc3Cl)N2C1=O)NCCc1ccccc1 (stereo not drawn), the Potency is reported as inconclusive [phenotype inactive, single point].
In the case of Cc1cc(Nc2cccc(Cl)c2)nc2ccc(NC(=O)c3cncc(Br)c3)cc12, the Potency is reported as inconclusive [phenotype inactive, single point].
With CCCc1nnc(NC(=O)c2nc(SCC)ncc2Cl)s1 the Potency was “inactive”.
In the case of O=C(Nc1cccc(C(F)(F)F)c1)c1cnn(-c2cccc(F)c2)c1C1CCNCC1, the Potency is reported as “inactive”.
In the case of Cc1ccccc1CSc1cn(CC(=O)N2CCCCC2)c2ccccc12, the Potency is reported as inconclusive [phenotype inactive, single point].
In the case of CCc1cccc(C)c1NC(=O)Cn1nc(C)n2cccc2c1=O, the Potency is reported as “inactive”.
For CCOc1ccc(NC(=O)Cn2c(=O)n(CCCCCC(=O)NCc3ccccc3)c(=O)c3sccc32)cc1, the Potency was inconclusive [phenotype inactive, single point].
For COc1ccc(CCNC(=O)c2nc(-c3ccc(Cl)cc3)n3c2CCCCC3)c(OC)c1, the Potency was inconclusive [phenotype inactive, single point].
With Cc1nn(CC(=O)Nc2ccc(OC(F)(F)F)cc2)c(=O)c2c(C)n(-c3ccc(Cl)cc3)nc12 the Potency was “inactive”.
For Cc1cccc(C)c1Nc1c(-c2ccccn2)nc2c(C)cccn12, the Potency was inconclusive [phenotype inactive, single point].
For CCOc1ccc2nc(N3CCCC(C(=O)NCCc4ccc(OCC)c(OCC)c4)C3)sc2c1 (stereo not drawn), the Potency was “inactive”.
